Results as given in paper PMC6346018 (Scientific Reports, 2019).

B1: arrestin-1-mCherry-Strep-tag mutant F375A, HEK293-expressed and purified (natural protein)
chain: not shown
notes: arrestin-1 (visual arrestin), bovine, […]; also called arrestin-1 F375A mutant; source: HEK293, transiently transfected (pcDNA3.1), one-step purified (Strep-Tactin); not shown: mCherry, C-terminal, kept
B2: arrestin-1-mCherry mutant F375A, bacterial lysate (natural protein)
chain: not shown
notes: arrestin-1 (visual arrestin), bovine, […]; also called single mutant F375A; not shown: mCherry, C-terminal, kept

Tests used:
[1] = target: T1, light-activated and phosphorylated rhodopsin in rod outer segment membranes (P-ROS*) (UniProt P02699 1-348, phosphorylated by endogenous GRK1: mixture of species with up to seven phosphate groups per molecule, sites not stated); assay: pull-down; 1.5 µg purified arrestin-1-mCherry and 15 µg (rhod-)opsin in native ROS membranes, 50 µl, 100 mM Hepes pH 7.0, 100 mM NaCl, 1 mM DTT, 0.1 mM EDTA; P-ROS* and ROS* illuminated 2.5 min (495 nm long-pass), others kept dark; centrifuged at 4 °C, pellet washed, mCherry fluorescence; details: one partner purified
T1 construct: rhodopsin, endogenous in native rod outer segment (ROS) disc membranes (isolated membranes, not whole cells); also called ROS-P*; source: rod outer segment disc membranes isolated from native source; phosphorylated by endogenously available GRK1; illuminated

[2] = target: T1, light-activated and phosphorylated …; assay: pull-down; cleared bacterial lysate with arrestin-mCherry mixed with ROS-P* membranes; 10 mM Hepes pH 7.0, 1 mM DTT, 1 mM MgCl2, 0.1 mM EDTA, NaCl from 100 mM to 3.949 M; 37 °C, 5 min incubation, light activated 6 min; membranes pelleted, washed, mCherry fluorescence of the pellet; IC50 of NaCl for complex formation; details: partners not purified
[3] = target: T1, light-activated and phosphorylated …; assay: as above; details: partners not purified; remark: listed apart in the source

T1 sequence (P02699 whole entry): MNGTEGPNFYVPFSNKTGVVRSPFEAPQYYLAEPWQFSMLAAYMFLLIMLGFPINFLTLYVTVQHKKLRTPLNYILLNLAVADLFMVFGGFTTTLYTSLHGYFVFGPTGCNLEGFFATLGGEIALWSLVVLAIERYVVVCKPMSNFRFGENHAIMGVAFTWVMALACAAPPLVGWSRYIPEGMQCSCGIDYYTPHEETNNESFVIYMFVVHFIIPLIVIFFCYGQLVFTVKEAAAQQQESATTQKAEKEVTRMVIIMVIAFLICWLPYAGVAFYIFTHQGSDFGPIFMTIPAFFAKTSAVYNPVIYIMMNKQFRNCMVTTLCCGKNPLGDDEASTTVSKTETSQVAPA

Binder	activity level relative to WT [1] [%]	IC50 of NaCl for complex formation [2] [M]	IC50 of NaCl relative to WT [3] [%]
B1	102		
B2		1.32 ± 0.31	322
